# Source: PubChem BioAssay AID485313 (National Center for Advancing Translational Sciences (NCATS), 2010)
# The whole screen tested about 320,000 compounds, of which about 7,600 (2.4%) were called active. Inconclusive results, whose numbers are uncertain, are shown with a selection of clear calls. Calls follow the shape of the dose curve; as a rule, active = well fitted activation curve with a large enough effect; inconclusive = small, poorly fitted or top-dose-only effect; inactive = no such curve, though single readings can be large or run the other way. No potency is given beside an inconclusive call; the fits are too rough.
# Assay: qHTS Assay for NPC1 Promoter Activators; also: nearly all actives have a fitted effect of over 60% in size;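 as to activation: reporter is driven by a mutant NPC1 promoter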
# Conditions: Huh7 NPC1 promoter luciferase reporter, 24 h; series mostly up to 9.22 µM
# Method in brief: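 Quantitative HTS used a cell-based reporter: Huh7 cells stably bearing the NPC1 promoter upstream of luciferase were treated with compounds for 24 h, and promoter activation was read as luminescence.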
# Potency is read from the fitted curve at half-maximal effect; tags tell the direction and shape of the fitted curve.
row,Structure (SMILES),Potency
1,Cc1onc(-c2ccc(Cl)cc2Cl)c1-c1csc(COc2ccccc2)n1,inactive
2,CSc1ccc(/C=N/Nc2cccc(C(=O)O)c2)cc1,"inconclusive [activator, full curve, poor fit]"
3,O=C(N/N=C1\CCCc2c1[nH]c1ccc(Cl)cc21)c1ccncc1,"inconclusive [activator, partial curve]"
4,CSc1ccc(/C=C/c2ccc3cccc(O)c3n2)cc1,active: 3.16 µM
5,CC(=O)c1cccc(S(=O)(=O)NCC2CCCCC2)c1,active: 0.0005 µM
6,Cc1csc2nc(CSc3nc4ccccc4o3)c(Br)n12,active: 3.55 µM
7,C(/C=C/c1ccco1)=N/N1CCN(c2ccccc2)CC1,active: 1.58 µM
8,Clc1ccc(-n2ncc3c(NCc4ccco4)ncnc32)cc1,"inconclusive [activator, full curve]"
9,O=C(Nc1cc2cccc([N+](=O)[O-])c2oc1=O)c1cccs1,inactive
10,CC(NS(=O)(=O)c1cccc(Cl)c1)C(=O)Nc1ccc(-c2nc3ccccc3s2)cc1 (stereo not given),"inconclusive [activator, partial curve]"
11,O=C(Nc1ccc2c(c1)OCCO2)C1CC(c2ccccc2Cl)=NO1 (stereo not given),active: 3.98 µM
12,CCOC(=O)C1(Cc2cccc(OC)c2)CCCN(C(=O)CCN2CCCO2)C1 (stereo not given),active: 3.55 µM
13,Cc1ccc2c(Cl)c(C(=O)Nc3cccnc3)sc2c1,active: 2.82 µM
14,CN(C)c1cccc(C(=O)OCc2cc(=O)oc3cc(O)ccc23)c1,"inconclusive [activator, partial curve]"
15,COc1ccc(C2NN=C(c3ccc(C)cc3)S2)cc1 (stereo not given),inactive
16,CCN(C(=O)c1cccs1)c1nc(-c2ccc(OC)cc2)cs1,"inconclusive [activator, partial curve]"
17,CSCC(=O)N1CCc2ccc(NC(=O)c3ccccc3Cl)cc2C1,"inconclusive [activator, single point]"
18,O=C(O)c1cccc(-c2nc3ccccc3[nH]2)c1,"inconclusive [activator, partial curve]"
19,Cc1ccccc1C(=O)Nc1ccc2c(c1)OCCO2,active: 0.501 µM
20,Cc1ccc(C(=O)Nc2nccs2)s1,"inconclusive [activator, single point]"
21,C/C(=N/NC(=O)c1cccc(N2CCCC2=O)c1)c1ccncc1,"inconclusive [activator, partial curve]"
22,Cc1cc(C)n2ncc(/C(N)=N/OC(=O)c3ccccc3F)c2n1,"inconclusive [activator, single point]"
23,O=C(OCC(=O)N1CCOCC1)c1ccccc1O,"inconclusive [activator, partial curve]"
24,O=C(CCOc1ccccc1F)N1CCN(c2ccccc2O)CC1,"inconclusive [activator, partial curve]"
25,O=C(Nc1ccc(F)cc1)Nc1ccc2ccccc2n1,"inconclusive [activator, single point]"
26,N/C(=N\OC(=O)c1ccc(Cl)cc1Cl)c1ccc(Cl)cc1,active: 1.41 µM
27,Cc1ccc(CNc2nc(C)cs2)cc1,active: 2 µM

row,Structure (SMILES),Potency
1,COc1ccc(CN(CCN)C2CC(C)N(C)CC2C)cc1 (stereo not given),inactive
2,O=C(Sc1ccc(Cl)cc1)c1cccc(Cn2cc(C(F)(F)F)ccc2=O)c1,inactive
3,Cc1cc(Cl)ccc1OCc1nnc(-c2ccccc2C)o1,"inconclusive [activator, partial curve]"
4,NC(=O)c1c(/N=C/c2cccnc2)sc2c1CCCC2,"inconclusive [activator, partial curve]"
5,Cc1ccc(-c2nnc(COC(=O)c3cccs3)o2)cc1,"inconclusive [activator, single point]"
6,O=C(CN(Cc1ccc(F)cc1)C(=O)CNS(=O)(=O)c1ccc(Cl)cc1)NCC1CCCO1 (stereo not given),inactive
7,O=C(NC1CCOCC1)C1CCC(=O)N(Cc2cccc(C(F)(F)F)c2)C1 (stereo not given),inactive
8,CSCCC(NC(=O)COc1ccccc1)C(=O)N1CCOCC1 (stereo not given),inactive
9,Cc1cc([N+](=O)[O-])ccc1N=Nc1c(N)[nH]n(-c2ccccc2)c1=O,inactive
10,COc1cccc(NC(=O)c2cc3ccccc3o/c2=N\O)c1,active: 0.794 µM
11,Cc1ccc(NC(=O)c2ccc(OC(=O)COc3ccc(Cl)c(C)c3)cc2)cc1,active: 2.24 µM
12,COc1cccc(C(=O)NCCC2=CCCCC2)c1OC,"inconclusive [activator, partial curve]"
13,COc1cccc(C(=O)Nc2ccc(NC(=O)c3ccco3)cn2)c1,"inconclusive [activator, single point]"
14,Nc1nonc1-n1nnc(C(=O)N/N=C/c2c(F)cccc2Cl)c1-c1ccc2c(c1)OCO2,inactive
15,COCCCNC(=O)CN(c1ccc(F)cc1)S(=O)(=O)c1ccc2c(c1)OCCO2,inactive
16,O=C(CSc1ccc(Cl)cc1)NC(=O)c1ccccc1,inactive
17,CCN1N=C(c2ccccc2)Cn2c1nc1ccccc12,inactive
18,CCc1ccc(-c2cc(C(=O)Nn3cnnc3)c3ccccc3n2)cc1,"inconclusive [activator, full curve]"
19,CC1=NOC(=O)/C1=C\c1ccc(-c2ccc(Br)cc2)o1,inactive
20,COc1ccccc1OCCCOc1ccc(C)cc1Br,"inconclusive [activator, single point]"
21,Cc1ccc2nc(-c3ccc(NC(=O)CN(C)S(=O)(=O)c4ccccc4)cc3)sc2c1,"inconclusive [activator, full curve]"
22,O=C1c2cccc3cccc(c23)C(=O)N1CC1CCN(CC(O)COc2ccc3ccccc3c2)CC1 (stereo not given),"inconclusive [activator, single point]"
23,O=C(Nc1ccc2c(c1)OCCO2)c1cnn(-c2ccccc2)n1,"inconclusive [activator, partial curve]"
24,COc1ccc(NC(=O)c2cccc(N3C(=O)c4ccc(C(=O)Nc5ccc(OC)c(O)c5)cc4C3=O)c2)cc1O,inactive
25,COc1ccc(-n2ncc3c(N4CCC(C)CC4)ncnc32)cc1,active: 0.112 µM
26,Cc1sc2nc(CN3CCN(c4ccc(O)cc4)CC3)[nH]c(=O)c2c1C,"inconclusive [activator, single point]"
27,C(=C\c1ccccc1)/C=N/Nc1nncc(-c2ccccc2)n1,inactive

row,Structure (SMILES),Potency
1,COc1cc(O)oc1C=Nc1ccc(Oc2ccccc2)cc1,"inconclusive [activator, partial curve]"
2,CC(=O)c1ccc(-c2nc3ccccc3n2C)o1,"inconclusive [activator, partial curve]"
3,O=C(Nc1nc2ccc(F)cc2s1)c1cccs1,active: 3.16 µM
4,CC(=O)c1cc(NC(=O)c2ccc(C)cc2)c(=O)oc1C,inactive
5,O=C(O)CN1C(=O)/C(=C/C=C/c2ccccc2)SC1=S,"inconclusive [activator, single point]"
6,COc1ccc(/C=N/Nc2nc3ccccc3o2)cc1O,"inconclusive [activator, single point]"
7,COC(=O)c1sccc1NC(=O)/C=C/c1ccc(Cl)cc1Cl,"inconclusive [activator, single point]"
8,CC1Sc2ccc(C(=O)Nc3ccccc3OC(F)F)cc2NC1=O (stereo not given),"inconclusive [activator, single point]"
9,O=C(NC1CCCCC1)c1ccc(CS(=O)(=O)c2ccc(Cl)cc2)o1,inactive
10,O=C(COC(=O)c1cnccn1)N=c1sccn1Cc1ccccc1Cl,inactive
11,CN(CC(=O)NCC(c1ccccc1)N1CCCC1)S(=O)(=O)c1ccc(Cl)cc1 (stereo not given),inactive
12,CCCN1CCC(=O)N([C@H](CSc2ccccc2)c2ccccc2)CC1,"inconclusive [activator, partial curve]"
13,CC(C)c1ccc(NC(=O)COc2ccccc2)cc1,"inconclusive [activator, single point]"
14,N/C(=N\OC(=O)N1CCOCC1)c1ccc(Br)cc1,"inconclusive [activator, partial curve]"
15,Cc1ccc2oc(C(=O)N(C)Cc3ccon3)c(C)c2c1,active: 3.16 µM
16,C/C(=N\Nc1ccc(C)c(Cl)c1)c1cccnc1,"inconclusive [activator, single point]"
17,Cc1ccc(-n2cc3ccc([N+](=O)[O-])cc3n2)cc1,active: 0.794 µM
18,CNC(C)C#Cc1ccc2c(=O)c3c(OC)cccc3oc2c1 (stereo not given),"inconclusive [activator, partial curve]"
19,Cn1c(SCc2ccccc2)nnc1-c1ccc2c(c1)OCO2,"inconclusive [activator, single point]"
20,COc1cccc(CNc2ccc(N3CCCCC3)cc2)c1OC,"inconclusive [activator, single point]"
21,C/C(=N\Nc1cccc(C(=O)O)c1)c1cc2ccccc2o1,"inconclusive [activator, partial curve]"
22,O=C1N=C(N2CCCCC2)S/C1=C/C1=Cc2ccccc2OC1,inactive
23,COc1cc(C)ccc1OCCCOc1ccccc1Br,"inconclusive [activator, single point]"
24,CCOC(=O)Cc1csc(NC(=O)c2cc(=O)c3ccccc3o2)n1,inactive
25,COc1ccc(OC)c(C2=Nn3c(nnc3-c3cc(OC)c(OC)c(OC)c3)SC2)c1,inactive
26,CCN(CC)CCNC(=O)c1ccc(Sc2ccc(Cl)cc2)c(NC(C)=O)c1,inactive
